From PubChem BioAssay AID1508623 (National Center for Advancing Translational Sciences (NCATS), 2021)
Among all 48,000 compounds or so, about 450 (0.94%) were called active. Another 19% or so got no clear call; they are omitted. Calls follow the shape of the dose curve; as a rule, active = well fitted inhibition curve with a large enough effect; inconclusive = small, poorly fitted or top-dose-only effect; inactive = no such curve, though single readings can be large or run the other way. The list shows a part of the results.

Assay: Primary qHTS for Identification of Small Molecule Inhibitors of Huntingtin Promoter Activity; also: nearly all actives have a fitted effect of over 50% in size
Details: HEK293 HTT promoter firefly luciferase reporter (activity 0% = vehicle and -100% = no light), 24 h; series mostly up to 57.5 µM; activity change, negative = inhibition: at the top concentration
In short: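 HEK293 Fluc reporter, 2,500 cells/well, 24 h pre-culture; cpds up to 57.5 uM final, 24 h 37 degrees C; Dual-Glo, 10 min RT; normalized vehicle = 0%, zero RLU = -100%.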

SMILES | activity change, negative = inhibition
CC(=O)Nc1cccc(C(=O)NCc2ccc3c(c2)CCN3C(=O)c2ccccc2)c1 | inactive: -22.9%
CCOc1ccc(CCNC(=O)Cn2nnc(-c3ccccc3)n2)cc1OCC | inactive: -10.1%
COc1cc(NS(=O)(=O)c2ccc(NC(=O)c3ccccc3C(=O)O)cc2)nc(OC)n1 | inactive: -7.69%
CCCCNC(=O)CSc1nc2nc(C)c(Cc3ccccc3C)c(C)n2n1 | inactive: -22.3%
COc1cccc(C(=O)Nc2cc(-c3ccccc3)no2)c1 | inactive: 39.1%
CC(C)CC(=O)Nc1ccc(C(=O)OCc2cc(=O)n3nc(C(C)C)sc3n2)cc1 | inactive: -31.2%
COc1ccc(C(=O)N2CC(=O)Nc3ccc(F)cc3C2c2ccc(F)cc2)c(OC)c1 (configuration not stated) | inactive: -33.1%
CCOC(=O)c1sc(NC(=O)/C=C/c2ccc(OCC)cc2)c(C(=O)OCC)c1C | inactive: 16.2%
Cc1ccc(NC(=O)c2oc3ccccc3c2NC(=O)c2cc3ccccc3o2)cc1 | inactive: 1.52%
O=C(CSc1cn(CCNC(=O)c2c(F)cccc2F)c2ccccc12)Nc1ccc2c(c1)OCCO2 | inactive: -16.5%
CC(C)CC(NS(=O)(=O)c1ccc2c(c1)oc(=O)n2C)C(=O)NCCc1ccc(Cl)cc1 (configuration not stated) | inactive: -7.05%
COC(=O)c1ccc(NC(=O)c2cc(S(=O)(=O)N3CCc4ccccc43)cn2C)cc1 | inactive: -10.3%
CCCc1nc(C)c2c(=O)[nH]c(-c3cc(S(=O)(=O)N4CCN(CC)CC4)ccc3OCC)nn12 | inactive: 2.36%
Cc1cc(C)cc(NS(=O)(=O)c2ccc3[nH]cc(C(=O)N4CCCC4)c(=O)c3c2)c1 | inactive: -9.86%
CCOc1ccccc1NC(=O)Cn1cnc2onc(-c3ccc(F)cc3)c2c1=O | inactive: -11.2%
O=C(OCc1cc(=O)n2nc(C3CC3)sc2n1)c1ccc(F)cc1 | inactive: 18.6%
CC1=C(C(N)=O)C(c2cccc(Br)c2)n2nc(SCc3ccccc3)nc2N1 (configuration not stated) | inactive: -5.17%
O=C(NCc1cccnc1)C1CCN(Cc2cc3ccccc3n2Cc2cccc(Cl)c2)CC1 | inactive: -23.3%
CCCCc1nnc(SCc2cc(=O)c3cc(C(=O)OCC)ccc3[nH]2)n1C | inactive: 13.2%
Cc1cc(NC(=O)C(C)C)cc(-c2nc3ncccc3o2)c1O | inactive: -8.1%
Cc1ccc2nc(-c3ccc(O)cc3)c(Nc3ccc4c(c3)OCO4)n2c1 | inactive: 8.13%
CC(C)N(Cc1ccccc1)C(=O)CCS(=O)(=O)c1cc2c(cc1Cl)NC(=O)CO2 | inactive: -18.6%
Cc1cc(C)n2nc(SCC(=O)Nc3ccccc3)nc2n1 | inactive: 8.28%
Cc1cc2nc(-c3cc(NC(=O)c4cc5ccccc5o4)ccc3Cl)oc2cc1C | inactive: 21%
COc1cccc(C(=O)Nc2ccccc2OCc2cc(=O)n3cc(C)ccc3n2)c1 | inactive: -0.424%

SMILES | activity change, negative = inhibition
CCCNC(=O)C1CCN(S(=O)(=O)c2ccc3c(c2)CCCN3C(C)=O)CC1 | inactive: -5.44%
Cc1ccccc1OCc1nnc(SCc2cc(=O)c3ccccc3[nH]2)n1C | inactive: -8.6%
COc1ccc(N(CC(=O)NCCc2cccc(C)c2)S(=O)(=O)c2c(C)nn(C)c2C)cc1 | inactive: -15%
COc1ccccc1N1CCN(C(CNC(=O)C(=O)NCCCN(C)C)c2cccnc2)CC1 (configuration not stated) | inactive: -2.03%
CCOC(=O)C1=C(CS(=O)(=O)c2c(C)cc(C)cc2C)NC(=O)NC1c1cccc(OC)c1 (configuration not stated) | inactive: -14.7%
N#Cc1c(NC(=O)c2cc3nc(-c4ccc(Br)cc4)cc(C(F)(F)F)n3n2)sc2c1CCCC2 | inactive: -1.78%
O=C1CC(c2ccccc2C(F)(F)F)c2c(c3ccccc3[nH]c2=O)O1 (configuration not stated) | inactive: -9.99%
COC(=O)c1cccc(Nc2c(-c3ccc(O)c(OC)c3)nc3nc[nH]n23)c1 | inactive: -10.6%
CCOc1ccc(-c2c(C)nn3c(C)c(C(=O)Nc4ccccc4C(=O)OC)cnc23)cc1OCC | inactive: -20.8%
Cn1c(=O)c2c(ncn2CC(O)CO)n(C)c1=O (configuration not stated) | inactive
COCc1cc(C)nc2sc3c(c12)NC(c1ccc(O)cc1)N(c1ccc(OC)cc1)C3=O (configuration not stated) | inactive: -2.87%
CCOc1ccc(NC(=O)C2Cc3ccccc3N2C(=O)c2ccccc2)cc1 (configuration not stated) | inactive: -15%
COc1ccccc1NC(=O)Cc1c(C(=O)O)[nH]c2ccc(Cl)cc12 | inactive: -0.382%
Cc1ccc(-c2nc3cc(C(C)C)ccc3o2)cc1NC(=O)c1cccs1 | inactive: 9.76%
COCCn1c(C)cc(O)c(C(c2ccccc2)N2CCN(C)CC2)c1=O (configuration not stated) | inactive: -14%
Cc1cccc(NC(=O)CSc2nc3ccc(NC(=O)c4ccco4)cc3s2)c1 | inactive: -5.36%
COc1cccc(NC(=O)CCNS(=O)(=O)c2ccc(Br)s2)c1 | inactive: -7.26%
COc1ccc(CNC(=O)Cc2csc3ccccc23)cc1OC | inactive: -6.57%
CCc1nn(CC(=O)N2CCCCC2)c(=O)c2cc3sccc3n12 | inactive: -13%
COc1cc(Br)c(/C=C(\C#N)c2nc3ccccc3[nH]2)cc1OC | inactive: 52.3%
CCc1ccccc1NC(=O)C1CCC(CNS(=O)(=O)c2ccc3c(c2)CC(C)N3C(C)=O)CC1 (configuration not stated) | inactive: -16.4%
Cc1cn2c(=O)c(S(=O)(=O)NCCc3ccccc3)c(C)nc2s1 | inactive: -5.3%
COc1ccc2nc(NC(=O)c3nc(SCc4ccc(F)cc4)ncc3Cl)sc2c1 | inactive: -7.46%
CCOc1ccc(-c2nnc(SCC(=O)NCCC(C)C)nc2-c2ccc(OCC)c(OC)c2)cc1OC | inactive: -23.5%
Cc1ccc(N2C(=O)CSC23C(=O)N(CC(=O)NC2CCCCC2)c2ccccc23)cc1 (configuration not stated) | inactive: -13%

SMILES | activity change, negative = inhibition
CC(C)CN1CCc2nc(N3CCN(c4ncccn4)CC3)ncc2C1 | inactive: 7.28%
COc1cccc(C(=O)NCC(c2ccc(N(C)C)cc2)N2CCCC2)c1OC (configuration not stated) | inactive: 5.59%
COc1ccc2nc(SCC(=O)c3c(C)[nH]c4ccccc34)nc(C)c2c1 | inactive: -1.21%
CCOc1ccc(OCC)c(NC(=O)C2CCN(S(=O)(=O)c3ccc(Br)s3)CC2)c1 | inactive: 2.19%
O=C(Nc1ccc(F)cc1)[C@H](CSCc1ccccc1)N1Cc2ccccc2C1=O | inactive: -18.3%
Cc1ccc(S(=O)(=O)c2nnn3c2nc(N2CCN(c4ccc(F)cc4)CC2)c2cc(Cl)ccc23)cc1C | inactive: 8.51%
COc1cccc(-n2c(=O)c3c(C)c(C(=O)N(C)C)sc3n(CC(=O)NCCc3ccc(OC)c(OC)c3)c2=O)c1 | inactive: 0.188%
NC(=O)c1cccnc1 | inactive
CCc1ccc(NC(=O)CSc2nc3nccnc3c(=O)n2CCc2c[nH]c3ccccc23)cc1 | inactive: -9.4%
COc1ccc(-c2nc(C)c(CCNC(=O)Cc3ccc(F)cc3)s2)cc1OC | inactive: -17.5%
COc1cc2ccccc2cc1C(=O)Nc1cccc(-c2nc3cc(C)c(C)cc3o2)c1C | inactive: -15.5% [at 11.5 µM]
COc1ccc2oc(=O)c(C(=O)NCCc3c(C)[nH]c4c(Cl)cccc34)cc2c1 | inactive: -0.443%
Cc1nc2nc(NCc3cccc(Br)c3)[nH]n2c(=O)c1Cc1ccccc1 | inactive: -6.22%
CCc1ccccc1NC(=O)N1CCN(c2cc(-c3noc(C)n3)ccc2C)CC1 | inactive: -15.5%
Cc1ccc(CN(C(=O)COc2cccc([N+](=O)[O-])c2)c2ccccn2)o1 | inactive: -27%
CCC(=O)N1CCc2cc(Br)cc(S(=O)(=O)N3CCCC(C(=O)Nc4ccc(OC)c(Cl)c4)C3)c21 (configuration not stated) | inactive: -0.129%
Cn1nnnc1SCCNCc1ccc(F)cc1 | inactive: -8.11%
CCOc1ccc(CNC(=O)CCC(=O)N2CC(C)Sc3ccccc32)cc1 (configuration not stated) | inactive: -19.2%
O=C(CSc1nccn1-c1ccccc1)Nc1nc2ccccc2s1 | inactive: 0.198%
CCOc1ccc(CCNC(=O)CCCn2nc(C)c3sc4ccccc4c3c2=O)cc1OCC | inactive: -23.7%
CCn1c2ccccc2c2nnc(SCCN3CCCCC3)nc21 | inactive: -8.27%
COC(=O)CC1c2cc(OC)c(OC)cc2CCN1C(=O)Nc1ccc(C)cc1Cl (configuration not stated) | inactive: -4.15%
COc1ccccc1Nc1nn2c(=O)c3ccc(C(=O)NCCCOC(C)C)cc3nc2s1 | inactive: -14.8%
CCOc1ccc(OCC)c(NC(=O)Cn2ncc3c4ccccc4n(Cc4ccccc4)c3c2=O)c1 | inactive: 0%
CCC1CN(C(=O)N2CCC(C(=O)NCCN(C)C)CC2)c2ccccc2O1 (configuration not stated) | inactive: -0.501%

SMILES | activity change, negative = inhibition
Cn1ccc2cc(S(=O)(=O)N3CCCN(C(=O)Nc4ccccc4Br)CC3)ccc21 | inactive: -34.4%
Cc1ccc(NC(=O)c2cnc(SCC(=O)N3CCOCC3)n(C)c2=O)cc1 | inactive: -10.9%
COc1cccc(NC(=O)CN(C)S(=O)(=O)c2ccc3nc(C)sc3c2)c1 | inactive: -25.3%
COc1ccc(C)cc1N(C)C(=O)c1c(C)oc2ncnc(N3CCOCC3)c12 | inactive: -2.85%
CN(c1ccc(Cl)cc1)S(=O)(=O)c1nnc(NC(=O)C2CCCCC2)s1 | inactive: -4.1%
CCOc1ccccc1NC(=O)c1c(NC(=O)c2ccccc2C)sc2c1CCC(C)C2 (configuration not stated) | inactive: -3.73%
COC(=O)c1c(C)sc(-c2c(-c3ccc4c(c3)OCCO4)[nH]c3c2c(=O)n(C)c(=O)n3C)c1O | inactive: -15.4%
CCNC(=O)c1cnc2sc(N3CCCCCC3)nn2c1=O | inactive: 32.1%
CCC(C)NC(=O)c1cnn(-c2ccc(Cl)cc2)c1C1CCN(C(=O)OC(C)(C)C)CC1 (configuration not stated) | inactive: -4.9%
Nc1nnc(SCC(=O)Nc2ccccc2C(F)(F)F)s1 | inactive: -8.86%
COC(=O)c1n[nH]n(-c2ccccc2)c1=O | inactive: -0.275%
CN(C1CCCCC1)S(=O)(=O)c1ccc2c(c1)c(=O)c(C(=O)NCCc1ccccc1)cn2C | inactive: -1.52% [at 11.5 µM]
Cc1ccn2c(Nc3ccc4c(c3)OCCO4)c(-c3ccc(Cl)s3)nc2c1 | inactive: 22.1%
Cc1cccc(NC(=O)C2CCCN(S(=O)(=O)c3cnc[nH]3)C2)c1C (configuration not stated) | inactive: -33.6% [at 11.5 µM]
Cc1ccc2c(c1)cc(C(=O)Nc1ccc(F)cc1F)n2C | inactive: 14.4%
CCOC(=O)c1cc(NC(=O)c2ccc(F)cc2)c(=O)n2c1oc1ccccc12 | inactive: 3.34%
Cc1ccc(C(=O)N(Cc2ccc(N(C)C)cc2)Cc2ccco2)cc1 | inactive: -18.9%
Cn1c(=O)c2cc(C(=O)N3CCN(c4ccc(Cl)cc4)CC3)sc2c2ccccc21 | inactive: -5.3%
Cc1oc(-c2ccc(C(=O)Nc3cc(F)ccc3F)cc2)nc1COc1ccccc1 | inactive: -36.1%
CCNC(=O)Cc1ccc(NC(=O)N2CCCCc3ccccc32)cc1 | inactive: -3.49%
CCN(CC)c1nn2c(=O)c(C(=O)NCc3ccc(F)cc3)cnc2s1 | inactive: 5.99%
CCCn1c2ccccc2c2cnn(CC(=O)NCCc3ccc(OC)cc3OC)c(=O)c21 | inactive: -9.98%
